# Reference: the supplement of paper PMC8728848
# This is one part of the list.
# B1: a L Fucosidase (Streptosporangium roseum), D2B1P1_STRRD (protein)
# chain: MRRKLLLVPAVGLLVIGSIFATQPVASADTPPVYEPTVESLNSHPVPQWFNDDKFGIFIHWGAYSVPAWGPRGSYAEWYGNYMNAGGSATNAHHKATYGQDFNYDAFLQQWKAEKFDPADWVKLFKDAGAKYFVLTSKHHEGMALWDSKSSGRDSVDLGPGRDLAKELFDAARKDEAKLKAGFYYSLYEWYNPAYTGRPATNPYTGAEIPYTGAPGGGDYVKDYMLPQMRELIDGYDPDIIWCDGQWEKPASYWNTAGVIADYYNKALNSGKEVAVANRCKIQSGNLDSPELDFQTPEYTVKPDIDPVKWESSRGIAHSYGYNQNEPEEDHLTSDQLVDSLVDIVSKNGNLLLDIGPKADGTIPEIQRQRLLDIGAWLKANGEAIYGTTYWNRAEEKGGPDDVRYTAKDATLYATALKWPGEQLTLGADLPVDHSTRITMLGSGARLSWSRDEQGRVVVNTPQEAGKHAYVFKIETPGVRSLLRTSSSLAKEIAPGRTISGELTVTNPGKRHTPATKLSLTVPQGWTATLGAPRVRPLGPGESVKVPISVSAPEGVAPAPYTLGLYQRTGRMGTTTALPLTVNRPNLSLGKPATQKSTGYDAPASRAVDGNTGGDWSAGSTTHTAEPEKQAWWQVDLGASARLDSVDVWNRLDCCADRLKDFWVMASDQPFTTDDLDQARTAPGVTAVHVGEQAGSPSKVKLPEGTRGRYVRIQLASPSNPLSLAEVQVRGSMARPNLSLGKPATQKSTGYDAPASRAVDGNTGGDWSAGSTTHTAEPEKQAWWQVDLGASARLDSVDVWNRLDCCADRLKDFWVMASDQPFTTDDLDQARTAPGVTAVHVGEQAGSPSKVKLPEGTRGRYVRIQLASPSNPLSLAEVQVRLEHHHHHHS
# What was measured:
# Assay in all cases: glycan array binding signal (z-score within array); higher = stronger binding
# Conditions in all cases: glycan notation: IUPAC condensed, linker removed
# [1] = molecular target: Gal3S(b1-3)[Fuc(a1-4)]GlcNAc
# Summary of the method: (§1)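 Glycan array data came from 3228 arrays in the Consortium for Functional Glycomics database, and only arrays with an available protein sequence were kept. Glycan names were put into IUPAC-condensed notation, and columns mapping to the same glycan were averaged. The binding signal is a within-array Z-score, averaged across arrays of one protein sequence run at different concentrations or buffers and across linkers. A negative Z-score can be read as non-binding.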
# Gal3S(b1-4)Glc = molecular target: Gal3S(b1-4)Glc
# Summary of the method: as §1
# Gal3S(b1-4)Glc6S = molecular target: Gal3S(b1-4)Glc6S
# Summary of the method: as §1
# Gal3S(b1-4)GlcNAc = molecular target: Gal3S(b1-4)GlcNAc
# Summary of the method: as §1
# [2] = molecular target: Gal3S(b1-4)[Fuc(a1-3)]Glc6S
# Summary of the method: as §1
# [3] = molecular target: Gal3S(b1-4)[Fuc(a1-3)]GlcNAc
# Summary of the method: as §1
# [4] = molecular target: Gal3S(b1-4)[Fuc(a1-3)]GlcNAc6S
# Summary of the method: as §1
# Gal3S4S(b1-4)GlcNAc = molecular target: Gal3S4S(b1-4)GlcNAc
# Summary of the method: as §1
# Gal3S6S(b1-4)GlcNAc = molecular target: Gal3S6S(b1-4)GlcNAc
# Summary of the method: as §1
# Gal3S6S(b1-4)GlcNAc6S = molecular target: Gal3S6S(b1-4)GlcNAc6S
# Summary of the method: as §1
# Gal4S(b1-4)GlcNAc = molecular target: Gal4S(b1-4)GlcNAc
# Summary of the method: as §1
# Gal4S6S(b1-4)GlcNAc = molecular target: Gal4S6S(b1-4)GlcNAc
# Summary of the method: as §1
# Gal6P(b1-4)GlcNAc = molecular target: Gal6P(b1-4)GlcNAc
# Summary of the method: as §1
# Gal6S(b1-3)GlcNAc = molecular target: Gal6S(b1-3)GlcNAc
# Summary of the method: as §1
# Gal6S(b1-3)GlcNAc6S = molecular target: Gal6S(b1-3)GlcNAc6S
# Summary of the method: as §1
# Gal6S(b1-4)Glc = molecular target: Gal6S(b1-4)Glc
# Summary of the method: as §1
# Gal6S(b1-4)Glc6S = molecular target: Gal6S(b1-4)Glc6S
# Summary of the method: as §1
# Gal6S(b1-4)GlcNAc = molecular target: Gal6S(b1-4)GlcNAc
# Summary of the method: as §1
# Gal6S(b1-4)GlcNAc6S = molecular target: Gal6S(b1-4)GlcNAc6S
# Summary of the method: as §1
# GalNAc(a1-3)Gal = molecular target: GalNAc(a1-3)Gal
# Summary of the method: as §1
# GalNAc(a1-3)GalNAc = molecular target: GalNAc(a1-3)GalNAc
# Summary of the method: as §1
# [5] = molecular target: GalNAc(a1-3)GalNAc(b1-3)Gal(a1-4)Gal(b1-4)Glc
# Summary of the method: as §1
# [6] = molecular target: GalNAc(a1-3)GalNAc(b1-3)Gal(a1-4)Gal(b1-4)GlcNAc
# Summary of the method: as §1
# GalNAc(b1-3)Gal = molecular target: GalNAc(b1-3)Gal
# Summary of the method: as §1
# [7] = molecular target: GalNAc(b1-3)Gal(a1-4)Gal(b1-4)GlcNAc
# Summary of the method: as §1
# [8] = molecular target: GalNAc(b1-3)Gal(a1-4)Gal(b1-4)GlcNAc(b1-3)Gal(b1-4)Glc
# Summary of the method: as §1
# [9] = molecular target: GalNAc(b1-3)Gal(a1-6)Gal(b1-4)Glc
# Summary of the method: as §1
# GalNAc(b1-3)GalNAc = molecular target: GalNAc(b1-3)GalNAc
# Summary of the method: as §1
# GalNAc(b1-3)GlcNAc = molecular target: GalNAc(b1-3)GlcNAc
# Summary of the method: as §1
# GalNAc(b1-4)Gal(b1-4)Glc = molecular target: GalNAc(b1-4)Gal(b1-4)Glc
# Summary of the method: as §1
binder,measurement,setting,value
B1,glycan array binding signal (z-score),[1],-0.548
same,glycan array binding signal (z-score),Gal3S(b1-4)Glc,-0.52
same,glycan array binding signal (z-score),Gal3S(b1-4)Glc6S,0.013
same,glycan array binding signal (z-score),Gal3S(b1-4)GlcNAc,-0.465
same,glycan array binding signal (z-score),[2],-0.086
same,glycan array binding signal (z-score),[3],-0.419
same,glycan array binding signal (z-score),[4],0.329
same,glycan array binding signal (z-score),Gal3S4S(b1-4)GlcNAc,-0.487
same,glycan array binding signal (z-score),Gal3S6S(b1-4)GlcNAc,-0.372
same,glycan array binding signal (z-score),Gal3S6S(b1-4)GlcNAc6S,0.084
same,glycan array binding signal (z-score),Gal4S(b1-4)GlcNAc,-0.485
same,glycan array binding signal (z-score),Gal4S6S(b1-4)GlcNAc,-0.147
same,glycan array binding signal (z-score),Gal6P(b1-4)GlcNAc,-0.076
same,glycan array binding signal (z-score),Gal6S(b1-3)GlcNAc,-0.58
same,glycan array binding signal (z-score),Gal6S(b1-3)GlcNAc6S,0.487
same,glycan array binding signal (z-score),Gal6S(b1-4)Glc,-0.356
same,glycan array binding signal (z-score),Gal6S(b1-4)Glc6S,0.016
same,glycan array binding signal (z-score),Gal6S(b1-4)GlcNAc,-0.516
same,glycan array binding signal (z-score),Gal6S(b1-4)GlcNAc6S,-0.332
same,glycan array binding signal (z-score),GalNAc(a1-3)Gal,-0.595
same,glycan array binding signal (z-score),GalNAc(a1-3)GalNAc,-0.483
same,glycan array binding signal (z-score),[5],-0.338
same,glycan array binding signal (z-score),[6],0.393
same,glycan array binding signal (z-score),GalNAc(b1-3)Gal,-0.257
same,glycan array binding signal (z-score),[7],-0.428
same,glycan array binding signal (z-score),[8],-0.404
same,glycan array binding signal (z-score),[9],-0.451
same,glycan array binding signal (z-score),GalNAc(b1-3)GalNAc,-0.634
same,glycan array binding signal (z-score),GalNAc(b1-3)GlcNAc,-0.481
same,glycan array binding signal (z-score),GalNAc(b1-4)Gal(b1-4)Glc,0.011
